B1: M0042-G12: Fab that binds human MMP-14; DNA LV SEQ ID NO: 124, HV SEQ ID NO: 125 (antibody, V domains shown)
VL: QDIQMTQSPGTLSLSPGERATLS[about 80 residues left out here]YTFGQGTKLEIK
VH: EVQLLESGGGLVQPGGSLRLSCAASGFTFSHYPMFWVRQAPGKGLEWVSGISSSGGYTIYADSVKGRFTISRDNSKNTLYLQMNSLRAEDTAVYYCARGGRRQTRRTSDYYYGMDVWGQGTTVTVSS
modifications: Synthetically generated oligonucleotide
B2: M0040-A08: Fab that binds human MMP-14; DNA LV SEQ ID NO: 84, HV SEQ ID NO: 85 (antibody, V domains shown)
VL: [about 100 residues left out here]FGGGTKVEIK
VH: EVQLLESGGGLVQPGGSLRLSCAASGFTFSAYMMGWVRQAPGKGLEWVSGISSSGGLTSYADSVKGRFTISRDNSKNTLYLQMNSLRAEDTAVYYCARPALIYYDSSGPSDAFDIWGQGTMVTVSS
modifications: Synthetically generated oligonucleotide
B3: M0040-B08: Fab that binds human MMP-14; DNA LV SEQ ID NO: 90, HV SEQ ID NO: 91 (antibody, V domains shown)
VL: [about 100 residues left out here]
VH: EVQLLESGGGLVQPGGSLRLSCAASGFTFSYYNDMAWVRQAPGKGLEWVSSISPSGGKTEYADSVKGRFTISRDNSKNTLYLQMNSLRAEDTAVYYCARSGSYTQHFDYWGQGTLVTVSS
modifications: Synthetically generated oligonucleotide
B4: M0031-H10: Fab that binds human MMP-14; DNA LV SEQ ID NO: 18, HV SEQ ID NO: 19 (antibody, V domains shown)
VH: EVQLLESGGGLVQPGGSLRLSCAASGFTFSQYVMWWVRQAPGKGLEWVSSIVPSGGVTKYADSVKGRFTISRDNSKNTLYLQMNSLRAEDTAVYYCAKDVFGSIGYYYVPFFDYWGQGTLVTVSS
VL: [about 100 residues left out here]FTFGPGTKVDIK
modifications: Synthetically generated oligonucleotide
B5: M0041-D08: Fab that binds human MMP-14; DNA LV SEQ ID NO: 114, HV SEQ ID NO: 115 (antibody, V domains shown)
VL: QDIQMTQSPGTLSLSPGERATLS[about 80 residues left out here]FGQGTKVEIK
VH: EVQLLESGGGLVQPGGSLRLSCAASGFTFSSYRMSWVRQAPGKGLEWVSGISSSGGFTMYADSVKGRFTISRDNSKNTLYLQMNSLRAEDTAVYYCARDILTGYSYGMDVWGQGTTVTVSS
modifications: Synthetically generated oligonucleotide
B6: M0036-H08: Fab that binds human MMP-14; DNA LV SEQ ID NO: 34, HV SEQ ID NO: 35 (antibody, V domains shown)
VL: [about 100 residues left out here]FGQGSKVEIKRT
VH: EVQLLESGGGLVQPGGSLRLSCAASGFTFSRYWMVWVRQAPGKGLEWVSYIYSSGGMTGYADSVKGRFTISRDNSKNTLYLQMNSLRAEDTAVYYCARGGEYSGFLGVWGQGTLVTVSS
modifications: Synthetically generated oligonucleotide

The target of this assay is MMP-14 (Homo sapiens, UniProt P50281). The assay can be described thus: Selection and phage ELISA screening of anti-MMP-14 Fabs. The format is binding. Conditions: Fab from FAB310 phage display library. On the procedure: Strategy I: A 100-fold excess of the FAB310 library (e.g., an amount of the library that should contain 100 copies of each library member) was depleted of streptavidin-binding antibodies by incubating the library with 200 μL of streptavidin beads for 1 hour at room temperature (RT) with rotation. 500 nM of biotinylated MMP-14 was coupled to streptavidin beads by incubation with 100 μL of streptavidin beads. The MMP-14 beads were then incubated with the streptavidin-depleted library for 1 hour at RT with rotation. The beads were then rinsed three times with 2% MTRIS/0.1% Tween, transferred to a fresh tube and washed an additional three times with 2% MTRIS/0.1% Tween, and transferred to a fresh tube and washed a final time with Round 1 TRIS buffer (50 mM TRIS; 50 mM CaCl2; 150 mM NaCl, pH 7.5).
MMP-14 binding antibodies were eluted from the beads by re-suspension in 1 mL 2% MTRIS containing 2.5 μM TIMP-2 and incubation for 1 hour at RT with rotation. The beads were then washed three times with 2% MTRIS/0.1% Tween, transferred to a fresh tube and washed three times with TRIS/0.1% Tween, and transferred to a fresh tube and washed a final time with TRIS. 1 mL output was used for infection of 9 mL TG1 bacteria (grown to OD600=0.5). The beads were further eluted by suspension in 1 mL 100 mM TEA for 10 minutes. The supernatant was neutralized with 500 μl TRIS/HCl pH 7.5. 1 mL of the second elution was used for infection of 9 mL TG1 bacteria (grown to OD600=0.5).
Two additional rounds of selection were carried out under the same conditions as the first round, except that the streptavidin beads were loaded with 100 nM biotinylated MMP-14 and the number of washes were doubled (6 times with 2% MTRIS/0.1% Tween, 6 times with TRIS/0.1% Tween and 2 times with TRIS), and Round 2/3 Tris buffer (50 mM TRIS; 5 mM CaCl2; 150 mM NaCl pH=7.5) was used for incubation and wash.
TIMP-2 was coupled to carboxylic beads, then complexed with a combination of biotinylated MMP-14 (500 nM each). The complexed beads were incubated with a 100 fold excess of FAB310 library that had been previously depleted by incubation with streptavidin beads and carboxylic beads. Elution/washing was carried out as for Strategy I.
Two additional rounds of selection were carried out, essentially as described for Strategy I, except that only 100 nM of each of MMP-14 were used in the bead complexes.
384-well plates were coated with biotinylated BSA (2 μg/ml in 50 mM TRIS; 5 mM CaCl2; 150 mM NaCl, pH 7.5), then washed 3 times with 50 mM TRIS; 5 mM CaCl2; 150 mM NaCl, pH 7.5; 0.1% Tween. Streptavidin was captured on the coated plates by incubation with 10 μg/mL streptavidin in 50 mM TRIS; 5 mM CaCl2; 150 mM NaCl pH 7.5; 0.5% Gelatin, followed by a wash with 50 mM TRIS; 5 mM CaCl2; 150 mM NaCl pH=7.5; 0.1% Tween. On the day the assay was to be performed, biotinylated MMP-14 (1 μg/ml) was captured in 50 mM TRIS; 5 mM CaCl2; 150 mM NaCl, pH 7.5.
95 clones were picked from each of Round 2 and Round 3 of each selection strategy, producing 12 masterplates. ELISA was run on the MiniTrak-5 deck according to SOP.
On the technique in general: ELISA stands for enzyme-linked immunosorbent assay.
On to B1, for which the “bind to human MMP-14” value is listed as “bind to human MMP-14”.
The same measure for B2: “bind to human MMP-14”.
The value for B3 was “bind to human MMP-14”; that for B4 was “bind to human MMP-14”.
The value for B5 was “bind to human MMP-14”.
Regarding B6, the “bind to human MMP-14” value is given as “bind to human MMP-14”.

The values above are taken from patent publication US8106168B2, “Metalloproteinase binding proteins” (Dyax Corp., priority 2005, dated 2012).
